Some of the results follow. At the low end of the ranking the order means little.

The test concerns the target GST-SBP-SLBP (stem-loop binding protein) (UniProt Q14493). As to the kind of experiment: targeted RNA Bind-n-Seq.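 Further: DESeq read counts versus GST-SBP nonspecific binding control pulldown.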 The note with it: RBNS binding buffer: 25 mM Tris pH 7.5, 150 mM KCl, 3 mM MgCl2, 0.1% Tween, 0.5 mg/mL BSA, 1 mM DTT; 27 nM protein, 750 pM RNA pool; temperature not stated; high values mean tight binding.
On to “GGUCACGUCUCAAUCAACUCACAAGAGGGGGGGAAAACCCCUUUGCCCUCAAAAUCAACAGCUCGCAGUCAAG”, for which the binding signal (log2 fold change) is -0.042. Then “GGUCACGUCUCAAUCAACUCUUUUUCAGGAGUUUCCUCCUGCUUACUCAACAGCUCGCAGUCAAG”, with -0.16.

With “GGUCACGUCUCAAUCAACUCCUAAGAGGGGGGGAAAACCCCUUUACCCUCAACAUCAACAGCUCGCAGUCAAG”, the binding signal (log2 fold change) was 0.0781. Then “GGUCACGUCUCAAUCAACUCUACUCCCAGGGAAAACCCUGGUAUACUCAACAGCUCGCAGUCAAG”, with -0.0826. For the sequence “GGUCACGUCUCAAUCAACUCCUCAGAGGGGGGGAAAACCCCUUUGCCCUCAUCAUCAACAGCUCGCAGUCAAG”, the binding signal (log2 fold change) was -0.176. The same measure for “GGUCACGUCUCAAUCAACUCCCAAGAGGGGGGGAAAACCCCUUUACCCUCAUAAUCAACAGCUCGCAGUCAAG”: -0.264; for “GGUCACGUCUCAAUCAACUCUUCUUCCAGGGAAAGCCCUGGUUUACUCAACAGCUCGCAGUCAAG”: -0.169.

Take “GGUCACGUCUCAAUCAACUCUAUCUCAGGAGUUUACUCCUGUUUUCUCAACAGCUCGCAGUCAAG”: the binding signal (log2 fold change) was found to be 0.272. Then “GGUCACGUCUCAAUCAACUCAGUCCCCAGGGAAAACCCUGGUAUAUUCAACAGCUCGCAGUCAAG”, with -0.102; and “GGUCACGUCUCAAUCAACUCCCAAGAGGGGGGGAAAACCCCUUUGCCCUCAACAUCAACAGCUCGCAGUCAAG”, with -0.104.

With “GGUCACGUCUCAAUCAACUCUUAAGAGGGGGGGAAAACCCCUUUGCCCUCAUUCUCAACAGCUCGCAGUCAAG”, the binding signal (log2 fold change) is -0.114. The same measure for “GGUCACGUCUCAAUCAACUCAUUCCCCAGGGAAAGCCCUGGCUAUCUCAACAGCUCGCAGUCAAG”: 0.129; for “GGUCACGUCUCAAUCAACUCCUAAGAGGGGGGGAAAACCCCUUUGCCCUCAAAUUCAACAGCUCGCAGUCAAG”: -0.483. As to “GGUCACGUCUCAAUCAACUCAUUCCCCAGGGAAAUCCCUGGCUAUCUCAACAGCUCGCAGUCAAG”, the binding signal (log2 fold change) worked out at 0.0746.

As to “GGUCACGUCUCAAUCAACUCAACUUCCAGGGAAACCCCUGGCUAUCUCAACAGCUCGCAGUCAAG”, the binding signal (log2 fold change) was -0.0646. The same measure for “GGUCACGUCUCAAUCAACUCAUCCGCAGGAGUUUCCUCCUGGUAUCUCAACAGCUCGCAGUCAAG”: 0.095; for “GGUCACGUCUCAAUCAACUCUUCCCCCAGGGAAAGCCCUGGUUUAUUCAACAGCUCGCAGUCAAG”: -0.0573; for “GGUCACGUCUCAAUCAACUCUUCCCCAGGAGUUUACUCCUGUAAUGUCAACAGCUCGCAGUCAAG”: 0.0804. The same measure for “GGUCACGUCUCAAUCAACUCAUAAGAGGGGGGGAAAACCCCUUUACCCUCAUCUUCAACAGCUCGCAGUCAAG”: -0.414; for “GGUCACGUCUCAAUCAACUCAUCCUCAGGAGUUUACUCCUGCAAACUCAACAGCUCGCAGUCAAG”: 0.0302; for “GGUCACGUCUCAAUCAACUCAAUUUCCAGGGAAACCCCUGGCUUUUUCAACAGCUCGCAGUCAAG”: -0.109. Then “GGUCACGUCUCAAUCAACUCUAUAGAGGGGGGGAAAACCCCUUUACCCUCCACUUCAACAGCUCGCAGUCAAG”, with -0.247; and “GGUCACGUCUCAAUCAACUCUAUUUCAGGAGUUUCCUCCUGCAAACUCAACAGCUCGCAGUCAAG”, with 0.0821; and “GGUCACGUCUCAAUCAACUCUUUUUCCAGGGAAAUCCCUGGUUAUGUCAACAGCUCGCAGUCAAG”, with -0.013.

Turning to “GGUCACGUCUCAAUCAACUCAAUCCCAGGAGUUUUCUCCUGCUUAUUCAACAGCUCGCAGUCAAG”, the binding signal (log2 fold change) was determined as 0.12. For the sequence “GGUCACGUCUCAAUCAACUCCCUAGAGGGGGGGAAAACCCCUUUGCCCUCAUCAUCAACAGCUCGCAGUCAAG”, the binding signal (log2 fold change) was determined as 0.00487. Then “GGUCACGUCUCAAUCAACUCUAUCCCCAGGGAAACCCCUGGUUAACUCAACAGCUCGCAGUCAAG”, with 0.253. Consider “GGUCACGUCUCAAUCAACUCAGAAGAGGGGGGGAAAACCCCUUUACCCUCCACAUCAACAGCUCGCAGUCAAG”, for which the binding signal (log2 fold change) was -0.129.

Consider “GGUCACGUCUCAAUCAACUCUACUCCAGGAGUUUCCUCCUGCAAUCUCAACAGCUCGCAGUCAAG”, for which the binding signal (log2 fold change) is 0.261. Then “GGUCACGUCUCAAUCAACUCUAUCUCCAGGGAAAACCCUGGCAUUUUCAACAGCUCGCAGUCAAG”, with -0.0332; and “GGUCACGUCUCAAUCAACUCAUUCUCCAGGGAAAGCCCUGGUAAACUCAACAGCUCGCAGUCAAG”, with -0.0914. The same measure for “GGUCACGUCUCAAUCAACUCACACGAGGGGGGGAAAACCCCUUUGCCCUCAUAUUCAACAGCUCGCAGUCAAG”: 0.0682. Then “GGUCACGUCUCAAUCAACUCCCUCGAGGGGGGGAAAACCCCUUUACCCUCAUCCUCAACAGCUCGCAGUCAAG”, with -0.196. Take “GGUCACGUCUCAAUCAACUCUUCCCCAGGAGUUUCCUCCUGCAAUUUCAACAGCUCGCAGUCAAG”: the binding signal (log2 fold change) is -0.00681. Then “GGUCACGUCUCAAUCAACUCAUCUUCCAGGGAAAACCCUGGUUAACUCAACAGCUCGCAGUCAAG”, with 0.0985. Then “GGUCACGUCUCAAUCAACUCAUCCUCCAGGGAAAACCCUGGCAUUCUCAACAGCUCGCAGUCAAG”, with -0.0339. The same measure for “GGUCACGUCUCAAUCAACUCAAUUUCAGGAGUUUGCUCCUGCAUUUUCAACAGCUCGCAGUCAAG”: 0.202.

The values are drawn from paper PMC5892938.
